# In the supplement of paper PMC8728848:
# Some of the results follow.
# B1: Spy 2007 (Streptococcus pyogenes), Q99XV3 (protein)
# chain: MKKGFFLMAMVVSLVMIAGCDKSANPKQPTQGMSVVTSFYPMYAMTKEVSGDLNDVRMIQSGAGIHSFEPSVNDVAAIYDADLFVYHSHTLEAWARDLDPNLKKSKVDVFEASKPLTLDRVKGLEDMEVTQGIDPATLYDPHTWTDPVLAGEEAVNIAKELGRLDPKHKDSYTKNAKAFKKEAEQLTEEYTQKFKKVRSKTFVTQHTAFSYLAKRFGLKQLGISGISPEQEPSPRQLKEIQDFVKEYNVKTIFAEDNVNPKIAHAIAKSTGAKVKTLSPLEAAPSGNKTYLENLRANLEVLYQQLK
# B2: P-Selectin (Homo sapiens), P16109 (protein)
# chain: MANCQIAILYQRFQRVVFGISQLLCFSALISELTNQKEVAAWTYHYSTKAYSWNISRKYCQNRYTDLVAIQNKNEIDYLNKVLPYYSSYYWIGIRKNNKTWTWVGTKKALTNEAENWADNEPNNKRNNEDCVEIYIKSPSAPGKWNDEHCLKKKHALCYTASCQDMSCSKQGECLETIGNYTCSCYPGFYGPECEYVRECGELELPQHVLMNCSHPLGNFSFNSQCSFHCTDGYQVNGPSKLECLASGIWTNKPPQCLAAQCPPLKIPERGNMTCLHSAKAFQHQSSCSFSCEEGFALVGPEVVQCTASGVWTAPAPVCKAVQCQHLEAPSEGTMDCVHPLTAFAYGSSCKFECQPGYRVRGLDMLRCIDSGHWSAPLPTCEAISCEPLESPVHGSMDCSPSLRAFQYDTNCSFRCAEGFMLRGADIVRCDNLGQWTAPAPVCQALQCQDLPVPNEARVNCSHPFGAFRYQSVCSFTCNEGLLLVGASVLQCLATGNWNSVPPECQAIPCTPLLSPQNGTMTCVQPLGSSSYKSTCQFICDEGYSLSGPERLDCTRSGRWTDSPPMCEAIKCPELFAPEQGSLDCSDTRGEFNVGSTCHFSCDNGFKLEGPNNVECTTSGRWSATPPTCKGIASLPTPGLQCPALTTPGQGTMYCRHHPGTFGFNTTCYFGCNAGFTLIGDSTLSCRPSGQWTAVTPACRAVKCSELHVNKPIAMNCSNLWGNFSYGSICSFHCLEGQLLNGSAQTACQENGHWSTTVPTCQAGPLTIQEASTSITAYKSEGESAEFSFPLNLGEESLQGELRWKAEKAPSSQSWITFSLKNQKVSVQKSTSNPKFQLSETLPLTLQIPQVSLQFAGSGNLTLTLDRGILYQEVNLVVMKVTQPDSNTLTCEVMGPTSPKMRLILKQENQEARVSRQEKVIQVQAPEAGVWQCLLSEGEEVKMDSKIQVLSKGLNSGGGSGGGTGGGDLAPQMLRELQETNAALQDVRELLRQQVKEITFLKNTVMECDACGLDRNLPPLAPLGPHPETLVKVKDAEDQLGARVGYIELDLNSGKILESFRPEERFPMMSTFKVLLCGAVLSRIDAGQEQLGRRIHYSQNDLVEYSPVTEKHLTDGMTVRELCSAAITMSDNTAANLLLTTIGGPKELTAFLHNMGDHVTRLDRWEPELNEAIPNDERDTTMPVAMATTLRKLLTGELLTLASRQQLIDWMEADKVAGPLLRSALPAGWFIADKSGAGERGSRGIIAALGPDGKPSRIVVIYTTGSQATMDERNRQIAEIGASLIKHWGPDYKDHDGDYKDHDIDYKDDDDKGPHHHHHH
# Key:
# Assay in all cases: glycan array binding signal (z-score within array); higher = stronger binding
# Conditions in all cases: glycan notation: IUPAC condensed, linker removed
# Neu5Ac(a2-6)GalNAc = molecular target: Neu5Ac(a2-6)GalNAc
# Summary of the method: (§1)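 The Consortium for Functional Glycomics database supplied 3228 glycan arrays, of which those lacking an available protein sequence were dropped. The binding signal, a within-array Z-score, was averaged across arrays of the same protein sequence and across linkers. Negative scores can be read as non-binding.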
# [1] = molecular target: Neu5Ac(a2-6)GalNAc(b1-4)GlcNAc
# Summary of the method: as §1
# [2] = molecular target: Neu5Ac(a2-6)GlcNAc(b1-4)GlcNAc
# Summary of the method: as §1
# [3] = molecular target: Neu5Ac(a2-6)GlcNAc(b1-4)GlcNAc(b1-4)GlcNAc
# Summary of the method: as §1
# Neu5Ac(a2-8)Neu5Ac = molecular target: Neu5Ac(a2-8)Neu5Ac
# Summary of the method: as §1
# [4] = molecular target: Neu5Ac(a2-8)Neu5Ac(a2-3)Gal(b1-4)Glc
# Summary of the method: as §1
# [5] = molecular target: Neu5Ac(a2-8)Neu5Ac(a2-3)[GalNAc(b1-4)]Gal(b1-4)Glc
# Summary of the method: as §1
# [6] = molecular target: Neu5Ac(a2-8)Neu5Ac(a2-8)Neu5Ac
# Summary of the method: as §1
# [7] = molecular target: Neu5Ac(a2-8)Neu5Ac(a2-8)Neu5Ac(a2-3)Gal(b1-4)Glc
# Summary of the method: as §1
# [8] = molecular target: Neu5Ac(a2-8)Neu5Ac(a2-8)Neu5Ac(a2-3)[GalNAc(b1-4)]Gal(b1-4)Glc
# Summary of the method: as §1
# [9] = molecular target: Neu5Ac(a2-8)Neu5Ac(a2-8)Neu5Ac(a2-8)Neu5Ac(a2-3)[GalNAc(b1-4)]Gal(b1-4)Glc
# Summary of the method: as §1
# [10] = molecular target: Neu5Ac(b2-6)Gal(b1-4)GlcNAc
# Summary of the method: as §1
# Neu5Ac(b2-6)GalNAc = molecular target: Neu5Ac(b2-6)GalNAc
# Summary of the method: as §1
# [11] = molecular target: Neu5Ac9Ac(a2-3)Gal(b1-3)GlcNAc
# Summary of the method: as §1
# [12] = molecular target: Neu5Ac9Ac(a2-3)Gal(b1-4)GlcNAc
# Summary of the method: as §1
# [13] = molecular target: Neu5Ac9Ac(a2-6)Gal(b1-4)GlcNAc
# Summary of the method: as §1
# [14] = molecular target: Neu5Gc(a2-3)Gal(b1-3)GlcNAc
# Summary of the method: as §1
# [15] = molecular target: Neu5Gc(a2-3)Gal(b1-3)[Fuc(a1-4)]GlcNAc
# Summary of the method: as §1
# Neu5Gc(a2-3)Gal(b1-4)Glc = molecular target: Neu5Gc(a2-3)Gal(b1-4)Glc
# Summary of the method: as §1
# [16] = molecular target: Neu5Gc(a2-3)Gal(b1-4)GlcNAc
# Summary of the method: as §1
# [17] = molecular target: Neu5Gc(a2-3)Gal(b1-4)[Fuc(a1-3)]GlcNAc
# Summary of the method: as §1
# [18] = molecular target: Neu5Gc(a2-6)Gal(b1-4)GlcNAc
# Summary of the method: as §1
# Neu5Gc(a2-6)GalNAc = molecular target: Neu5Gc(a2-6)GalNAc
# Summary of the method: as §1
# [19] = molecular target: Neu5Gc(b2-6)Gal(b1-4)GlcNAc
# Summary of the method: as §1
# Fuc(a1-2)Gal = molecular target: Fuc(a1-2)Gal
# Summary of the method: as §1
# Fuc(a1-2)Gal(b1-3)GalNAc = molecular target: Fuc(a1-2)Gal(b1-3)GalNAc
# Summary of the method: as §1
# [20] = molecular target: Fuc(a1-2)Gal(b1-3)GalNAc(b1-3)Gal
# Summary of the method: as §1
# [21] = molecular target: Fuc(a1-2)Gal(b1-3)GalNAc(b1-3)Gal(a1-4)Gal(b1-4)Glc
# Summary of the method: as §1
# [22] = molecular target: Fuc(a1-2)Gal(b1-3)GalNAc(b1-4)[Neu5Ac(a2-3)]Gal(b1-4)Glc
# Summary of the method: as §1
# Fuc(a1-2)Gal(b1-3)GlcNAc = molecular target: Fuc(a1-2)Gal(b1-3)GlcNAc
# Summary of the method: as §1
# [23] = molecular target: Fuc(a1-2)Gal(b1-3)GlcNAc(b1-3)Gal(b1-4)Glc
# Summary of the method: as §1
# [24] = molecular target: Fuc(a1-2)Gal(b1-3)[Fuc(a1-4)]GlcNAc
# Summary of the method: as §1
# Fuc(a1-2)Gal(b1-4)Glc = molecular target: Fuc(a1-2)Gal(b1-4)Glc
# Summary of the method: as §1
# Fuc(a1-2)Gal(b1-4)Glc6S = molecular target: Fuc(a1-2)Gal(b1-4)Glc6S
# Summary of the method: as §1
# Fuc(a1-2)Gal(b1-4)GlcNAc = molecular target: Fuc(a1-2)Gal(b1-4)GlcNAc
# Summary of the method: as §1
# [25] = molecular target: Fuc(a1-2)Gal(b1-4)GlcNAc(b1-3)Gal(b1-4)GlcNAc
# Summary of the method: as §1
# [26] = molecular target: Fuc(a1-2)Gal(b1-4)GlcNAc(b1-3)Gal(b1-4)GlcNAc(b1-3)Gal(b1-4)GlcNAc
# Summary of the method: as §1
# [27] = molecular target: Fuc(a1-2)Gal(b1-4)GlcNAc6S
# Summary of the method: as §1
# [28] = molecular target: Fuc(a1-2)Gal(b1-4)[Fuc(a1-3)]GlcNAc
# Summary of the method: as §1
# [29] = molecular target: Fuc(a1-2)Gal(b1-4)[Fuc(a1-3)]GlcNAc(b1-3)Gal(b1-4)[Fuc(a1-3)]GlcNAc
# Summary of the method: as §1
# [30] = molecular target: Fuc(a1-2)Gal(b1-4)[Fuc(a1-3)]GlcNAc(b1-3)Gal(b1-4)[Fuc(a1-3)]GlcNAc(b1-3)Gal(b1-4)[Fuc(a1-3)]GlcNAc
# Summary of the method: as §1
# Fuc(a1-2)Gal6S(b1-4)Glc = molecular target: Fuc(a1-2)Gal6S(b1-4)Glc
# Summary of the method: as §1
# [31] = molecular target: Fuc(a1-2)Gal6S(b1-4)Glc6S
# Summary of the method: as §1
# [32] = molecular target: Fuc(a1-2)Gal6S(b1-4)GlcNAc
# Summary of the method: as §1
# Fuc(a1-2)[Gal(a1-3)]Gal = molecular target: Fuc(a1-2)[Gal(a1-3)]Gal
# Summary of the method: as §1
# [33] = molecular target: Fuc(a1-2)[Gal(a1-3)]Gal(b1-3)GlcNAc
# Summary of the method: as §1
# [34] = molecular target: Fuc(a1-2)[Gal(a1-3)]Gal(b1-4)Glc
# Summary of the method: as §1
# [35] = molecular target: Fuc(a1-2)[Gal(a1-3)]Gal(b1-4)GlcNAc
# Summary of the method: as §1
# [36] = molecular target: Fuc(a1-2)[Gal(a1-3)]Gal(b1-4)[Fuc(a1-3)]GlcNAc
# Summary of the method: as §1
# [37] = molecular target: Fuc(a1-2)[Gal(a1-4)]Gal(b1-4)GlcNAc
# Summary of the method: as §1
# [38] = molecular target: Fuc(a1-2)[GalNAc(a1-3)]Gal
# Summary of the method: as §1
# [39] = molecular target: Fuc(a1-2)[GalNAc(a1-3)]Gal(b1-3)GlcNAc
# Summary of the method: as §1
# [40] = molecular target: Fuc(a1-2)[GalNAc(a1-3)]Gal(b1-4)Glc
# Summary of the method: as §1
# [41] = molecular target: Fuc(a1-2)[GalNAc(a1-3)]Gal(b1-4)GlcNAc
# Summary of the method: as §1
binder,measurement,setting,value
B1,glycan array binding signal (z-score),Neu5Ac(a2-6)GalNAc,-0.679
same,glycan array binding signal (z-score),[1],0.257
same,glycan array binding signal (z-score),[2],-0.636
same,glycan array binding signal (z-score),[3],-1.12
same,glycan array binding signal (z-score),Neu5Ac(a2-8)Neu5Ac,-0.108
same,glycan array binding signal (z-score),[4],-0.172
same,glycan array binding signal (z-score),[5],-0.393
same,glycan array binding signal (z-score),[6],-0.433
same,glycan array binding signal (z-score),[7],0.264
same,glycan array binding signal (z-score),[8],-0.652
same,glycan array binding signal (z-score),[9],-0.069
same,glycan array binding signal (z-score),[10],-0.452
same,glycan array binding signal (z-score),Neu5Ac(b2-6)GalNAc,-0.52
same,glycan array binding signal (z-score),[11],-0.298
same,glycan array binding signal (z-score),[12],0.06
same,glycan array binding signal (z-score),[13],-0.121
same,glycan array binding signal (z-score),[14],-0.593
same,glycan array binding signal (z-score),[15],0.276
same,glycan array binding signal (z-score),Neu5Gc(a2-3)Gal(b1-4)Glc,0.389
same,glycan array binding signal (z-score),[16],-0.723
same,glycan array binding signal (z-score),[17],0.352
same,glycan array binding signal (z-score),[18],-0.156
same,glycan array binding signal (z-score),Neu5Gc(a2-6)GalNAc,-0.531
same,glycan array binding signal (z-score),[19],-0.518
B2,glycan array binding signal (z-score),Fuc(a1-2)Gal,-0.092
same,glycan array binding signal (z-score),Fuc(a1-2)Gal(b1-3)GalNAc,-0.429
same,glycan array binding signal (z-score),[20],-0.105
same,glycan array binding signal (z-score),[21],-0.319
same,glycan array binding signal (z-score),[22],0.069
same,glycan array binding signal (z-score),Fuc(a1-2)Gal(b1-3)GlcNAc,-0.319
same,glycan array binding signal (z-score),[23],-0.298
same,glycan array binding signal (z-score),[24],-0.328
same,glycan array binding signal (z-score),Fuc(a1-2)Gal(b1-4)Glc,0.196
same,glycan array binding signal (z-score),Fuc(a1-2)Gal(b1-4)Glc6S,-0.268
same,glycan array binding signal (z-score),Fuc(a1-2)Gal(b1-4)GlcNAc,-0.13
same,glycan array binding signal (z-score),[25],-0.267
same,glycan array binding signal (z-score),[26],-0.153
same,glycan array binding signal (z-score),[27],-0.148
same,glycan array binding signal (z-score),[28],-0.385
same,glycan array binding signal (z-score),[29],-0.349
same,glycan array binding signal (z-score),[30],-0.214
same,glycan array binding signal (z-score),Fuc(a1-2)Gal6S(b1-4)Glc,-0.098
same,glycan array binding signal (z-score),[31],1.21
same,glycan array binding signal (z-score),[32],-0.134
same,glycan array binding signal (z-score),Fuc(a1-2)[Gal(a1-3)]Gal,-0.235
same,glycan array binding signal (z-score),[33],-0.491
same,glycan array binding signal (z-score),[34],-0.32
same,glycan array binding signal (z-score),[35],-0.305
same,glycan array binding signal (z-score),[36],0.127
same,glycan array binding signal (z-score),[37],-0.151
same,glycan array binding signal (z-score),[38],-0.224
same,glycan array binding signal (z-score),[39],-0.339
same,glycan array binding signal (z-score),[40],-0.331
same,glycan array binding signal (z-score),[41],-0.052
